Reference: PubChem BioAssay AID1963576 (National Center for Advancing Translational Sciences (NCATS), 2024)
Hit rate of the full screen: of about 46,000 compounds, about 60 (0.1%) were called active. Roughly 3% stayed inconclusive and do not appear here. Calls follow the shape of the dose curve; as a rule, active = well fitted inhibition curve with a large enough effect; inconclusive = small, poorly fitted or top-dose-only effect; inactive = no such curve, though single readings can be large or run the other way. The list shows a part of the results.

Assay: Primary qHTS assay for Inhibitors of ovarian cancer metastasis using an organotypic tumor microenvironment (TME) model. Also: nearly all actives have a fitted effect of over 65% in size.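 As to activity change, negative = inhibition: plate controls were DMSO wells for no effect and tomatine positive control wells for full effect.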
Conditions: SKOV3ip1-GFP adhesion/invasion on 3D omental model, fluorescence; series mostly up to 45.8 µM; activity change, negative = inhibition: at the top concentration
In short: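 qHTS, 4-pt dose (0.36-46 umol/L); SKOV3ip1-GFP, 1,200 cells/well, no FBS; primary omental fibroblast/mesothelial co-culture 48 h pre-grown; 2 h RT + 16 h 37 C; PBS wash, 4% PFA; GFP count 488/509 nm.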

Question: For `COc1ccc2c(c1OC)CN1CCc3cc4c(cc3C1C2)OCO4` (stereo not given), which “activity change, negative = inhibition” value is on record?
Answer: The value was inactive: -20.2%.

Question: For `Cc1oc2cc3oc(=O)c(CCC(=O)N4CCCCC4)c(C)c3cc2c1C`, which “activity change, negative = inhibition” value is on record?
Answer: The value was inactive: 9.5%.

Question: For `CNC(=O)c1ccc(N2C(=S)N(c3ccc(C#N)c(C(F)(F)F)c3)C(=O)C23CCC3)cc1F`, which “activity change, negative = inhibition” value is on record?
Answer: Its value is inactive: -6.48%.

Question: Which “activity change, negative = inhibition” value does the source give for `CCOc1ccc(CN(CCc2ccc3c(c2)OCO3)Cc2ccc(CC)cc2)cc1` here?
Answer: The value was inactive: -8.69%.

Question: Which “outcome” value does the source give for `O=C(Nc1nc2ccccc2s1)c1cccn(Cc2ccccc2)c1=O` here?
Answer: Its value is “inactive”.

Question: For `Cc1cccc(OC(C)C(=O)NCC2(N(C)C)CCCCC2)c1C` (stereo not given), which “activity change, negative = inhibition” value is on record?
Answer: The value was inactive: -23.4%.

Question: With `Cc1nnc(NC(=O)c2cccn(Cc3ccccc3)c2=O)s1` as the compound, how does the “activity change, negative = inhibition” value read?
Answer: The value was inactive: -19.2%.

Question: With `O=C(COc1ccccc1Cl)N1CCN(CCc2ccccn2)CC1` as the compound, how does the “activity change, negative = inhibition” value read?
Answer: Its value is inactive: 1.24%.

Question: For `CCOc1ccc(CN(CCc2ccc3c(c2)OCO3)Cc2cccc(Br)c2)cc1`, which “activity change, negative = inhibition” value is on record?
Answer: The value was inactive: -29.6%.

Question: With `CC(C)[C@]12O[C@@H]1[C@@H]1O[C@]13[C@]1(O[C@H]1C[C@@H]1C4=C(CC[C@@]13C)C(=O)OC4)[C@H]2O` as the compound, how does the “activity change, negative = inhibition” value read?
Answer: Its value is inactive: -2.37%.

Question: Which “activity change, negative = inhibition” value does the source give for `COc1ccc(CC2NCCc3cc(OC)c(OC)cc32)cc1OC` (stereo not given) here?
Answer: Its value is inactive: -17.1%.

Question: With `CCCCCC[C@H]1C(=O)O[C@H](C)[C@H](NC(=O)c2cccc(NC=O)c2O)C(=O)O[C@@H](C)[C@@H]1OC(=O)CC(C)C` as the compound, how does the “activity change, negative = inhibition” value read?
Answer: Its value is inactive: -2.71%.

Question: For `CC(=O)c1ccc(NC(=O)c2sc3nc4c(cc3c2N)N2CCC4CC2)cc1`, which “outcome” value is on record?
Answer: Its value is “inactive”.

Question: With `COc1cc2cc(c1Cl)N(C)C(=O)C[C@H](OC(=O)C(C)C)[C@]1(C)O[C@H]1[C@H](C)[C@@H]1C[C@@](O)(NC(=O)O1)[C@H](OC)C=CC=C(C)C2` as the compound, how does the “activity change, negative = inhibition” value read?
Answer: Its value is inactive: 5.91%.

Question: For `Cc1ccc(-n2c(/C=C/c3ccccc3)nc3ccccc3c2=O)cc1C`, which “outcome” value is on record?
Answer: Its value is “inactive”.

Question: Which “activity change, negative = inhibition” value does the source give for `CCOC(=O)Nc1ccc(NCc2ccc(F)cc2)cc1N` here?
Answer: Its value is inactive: -7.24%.

Question: For `C[C@@H]1C[C@@H]([C@H](O)CC2CC(=O)NC(=O)C2)C(=O)[C@@H](C)C1`, which “activity change, negative = inhibition” value is on record?
Answer: Its value is inactive: -11.5%.

Question: Which “activity change, negative = inhibition” value does the source give for `Cc1ccc2scc(N3CCN(C)CC3)c(=O)c2c1` here?
Answer: Its value is inactive: -6.88%.

Question: Which “activity change, negative = inhibition” value does the source give for `Cc1cccc(-n2c(/C=C/c3cccc4ccccc34)nc3ccccc3c2=O)c1` here?
Answer: Its value is inactive: -3%.

Question: Which “activity change, negative = inhibition” value does the source give for `CCSc1nnc(NC(=O)c2cccn(Cc3ccc(Cl)cc3)c2=O)s1` here?
Answer: The value was inactive: -8.24%.

Question: For `CCOc1ccc(CN2C(=O)c3ccccc3Sc3ccc(C(=O)N4CCC5(CC4)OCCO5)cc32)cc1`, which “activity change, negative = inhibition” value is on record?
Answer: Its value is inactive: -7.07%.

Question: For `Cc1c(C(c2ccc(O)cc2)c2c(O)c3ccccc3oc2=O)c(=O)n(-c2ccccc2)n1C` (stereo not given), which “activity change, negative = inhibition” value is on record?
Answer: The value was inactive: 8.53%.

Question: With `NC(=O)c1ccc(NC(=O)c2cccn(Cc3ccccc3)c2=O)cc1` as the compound, how does the “activity change, negative = inhibition” value read?
Answer: The value was inactive: -3.27%.

Question: For `Cc1ccc(-n2c(/C=C/c3cccc(C(F)(F)F)c3)nc3ccccc3c2=O)cc1`, which “outcome” value is on record?
Answer: The value was “inactive”.

Question: Which “activity change, negative = inhibition” value does the source give for `Cc1ccc(C)c(CN2C(=O)c3ccccc3Sc3ccc(C(=O)N4CCC5(CC4)OCCO5)cc32)c1` here?
Answer: Its value is inactive: -31.5%.
